Patent publication US20240115720A1, “ANTIBODY-PYRROLOBENZODIAZEPINE DERIVATIVE CONJUGATE” (MEMORIAL SLOAN KETTERING CANCER CENTER, priority 2021, published 2024)

T1: Histidine-tagged DLL3 antigen (DLL3-His) (Homo sapiens, UniProt Q9NYJ7)
T1 sequence (Q9NYJ7 27-479): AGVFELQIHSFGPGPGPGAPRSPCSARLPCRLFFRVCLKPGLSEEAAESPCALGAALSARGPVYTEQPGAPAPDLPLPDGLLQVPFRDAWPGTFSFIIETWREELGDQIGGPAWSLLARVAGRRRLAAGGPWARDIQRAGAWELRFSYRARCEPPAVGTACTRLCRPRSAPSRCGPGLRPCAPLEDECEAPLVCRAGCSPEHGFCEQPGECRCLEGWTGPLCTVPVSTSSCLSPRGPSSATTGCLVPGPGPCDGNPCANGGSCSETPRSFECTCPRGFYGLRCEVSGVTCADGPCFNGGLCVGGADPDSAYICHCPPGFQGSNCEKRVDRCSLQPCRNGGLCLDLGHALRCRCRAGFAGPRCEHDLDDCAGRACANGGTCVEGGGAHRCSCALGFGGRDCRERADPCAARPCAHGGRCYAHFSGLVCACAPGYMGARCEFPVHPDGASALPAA

T2: DLL3 (Homo sapiens, UniProt Q9NYJ7)
T2 sequence (Q9NYJ7 27-618): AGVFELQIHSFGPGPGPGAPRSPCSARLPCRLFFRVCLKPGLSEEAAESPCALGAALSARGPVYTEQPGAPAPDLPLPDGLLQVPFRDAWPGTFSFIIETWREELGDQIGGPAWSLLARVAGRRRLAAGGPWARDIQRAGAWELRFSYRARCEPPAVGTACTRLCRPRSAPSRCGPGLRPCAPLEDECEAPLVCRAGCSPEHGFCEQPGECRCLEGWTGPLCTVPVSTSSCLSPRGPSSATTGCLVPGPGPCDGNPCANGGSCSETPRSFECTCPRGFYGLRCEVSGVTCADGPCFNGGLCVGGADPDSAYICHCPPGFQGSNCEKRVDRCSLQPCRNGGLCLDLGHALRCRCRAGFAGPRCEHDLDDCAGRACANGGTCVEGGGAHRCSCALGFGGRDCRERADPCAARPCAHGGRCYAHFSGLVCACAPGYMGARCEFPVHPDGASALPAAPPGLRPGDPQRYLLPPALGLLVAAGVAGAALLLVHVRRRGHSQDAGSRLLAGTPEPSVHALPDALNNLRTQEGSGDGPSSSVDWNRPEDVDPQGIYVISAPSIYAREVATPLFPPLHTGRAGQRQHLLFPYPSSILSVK

T3: DLL1 (Homo sapiens, UniProt O00548)
T3 sequence (O00548 18-723): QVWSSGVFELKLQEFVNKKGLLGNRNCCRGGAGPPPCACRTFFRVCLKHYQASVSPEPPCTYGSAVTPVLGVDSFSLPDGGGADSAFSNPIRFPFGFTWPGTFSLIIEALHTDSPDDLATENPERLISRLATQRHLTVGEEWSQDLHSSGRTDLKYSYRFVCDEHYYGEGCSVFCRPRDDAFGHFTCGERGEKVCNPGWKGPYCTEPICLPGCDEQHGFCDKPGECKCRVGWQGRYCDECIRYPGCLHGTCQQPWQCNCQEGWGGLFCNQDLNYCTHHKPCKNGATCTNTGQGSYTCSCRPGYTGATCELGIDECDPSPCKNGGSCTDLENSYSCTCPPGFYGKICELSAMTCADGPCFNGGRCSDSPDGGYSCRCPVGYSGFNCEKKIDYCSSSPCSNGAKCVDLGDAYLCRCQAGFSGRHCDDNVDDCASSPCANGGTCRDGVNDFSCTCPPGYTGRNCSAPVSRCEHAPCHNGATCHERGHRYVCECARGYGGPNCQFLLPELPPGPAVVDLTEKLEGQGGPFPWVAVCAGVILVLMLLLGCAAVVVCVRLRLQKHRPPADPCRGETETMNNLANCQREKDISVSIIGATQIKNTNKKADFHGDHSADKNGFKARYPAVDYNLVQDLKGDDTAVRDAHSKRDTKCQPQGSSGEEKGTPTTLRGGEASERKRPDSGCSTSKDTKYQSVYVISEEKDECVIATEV

B1: 6-G23-F: anti-DLL3 monoclonal antibody, VH SEQ ID NO: 32 and VL SEQ ID NO: 37 (antibody, V domains shown)
VH: QVQLVQSGAEVKKPGASVKVSCKASGYTFTSYYIHWVRQAPGQGLEWMGIIDPSDGSTNYAQKFQGRVTMTRDTSTSTVYMELSSLRSEDTAVYYCARDREYNYYGLDVWGQGTTVTVSS
VL: [left out - about 100 residues]PTFGQGTKVEIK
B2: 10-O18-A: anti-DLL3 monoclonal antibody, VH SEQ ID NO: 22 and VL SEQ ID NO: 27 (antibody, V domains shown)
VH: QVQLQESGPGLVKPSETLSLTCTVSGGSINSYYWSWIRQPPGKGLEWIGYIFYSGITNYNPSLKSRVTISLDTSKNQFSLKLSSVTAADTAVYYCARIGVAGFYFDYWGQGTLVTVSS
VL: [left out - about 100 residues]

Columns and labels:
[1] = target: T1, Histidine-tagged DLL3 antigen (DLL3-His); experiment: Pairwise epitope binning, Carterra array SPR; details: pairwise competition for binding to DLL3-His
Protocol: The panel of purified anti-DLL3 monoclonal antibodies and the reference monoclonal antibody were subjected to pairwise epitope binning on a Carterra® array surface plasmon resonance (SPR) assay platform (Carterra® Inc., Salt Lake City UT) where each monoclonal antibody was tested for the capture of Histidine-tagged DLL3 antigen (DLL3-His), and also for competing with every other antibody in the panel for the binding to DLL3-His. The antibodies were immobilized on a HC200M chip (ligand) through standard amine coupling techniques by the print array method. Then in each cycle antigen was injected across the entire array followed by a single antibody (analyte). At the end of each cycle the surface was regenerated to remove antigen and analyte before a new cycle started. As shown in the Table below, three different bins were identified with the panel with 7-I1-B and 2-C8-A mapping to bin 2 while 6-G23-F was in bin 3 and 10-O18-A was in bin 1.

[2] = target: T2, DLL3; experiment: Selectivity of binding among delta-like ligands (FIG. 11)
[3] = target: T3, DLL1; experiment: as above
[4] = target: DLL4 (Homo sapiens, UniProt Q9NR61); experiment: as above
[5] = system: 293 (negative control); experiment: Flow cytometry binding to 293 cells (negative control); details: 10 μg/ml
Protocol: The four monoclonal antibodies (6-G23-F, 2-C8-A, 7-I1-B and 10-O18-A) were tested for their ability to bind to mouse and cynomolgous DLL3 as well as endogenous human DLL3 by flow cytometry. For this purpose, HEK293 cells were transfected with plasmid DNA encoding full-length human, mouse or cynomolgous DLL3 and used in the experiment. Briefly […] transfected HEK293 cells or NCI-H82 primary cells were added in FACS buffer PBS 0.5% BSA to the wells of a 96 well U bottom plate and purified monoclonal added to 10 μg/ml. After 30 minutes incubation at 4° C. the cells were washed 3 times in FACS buffer and incubated with a PE labelled F(ab)2 anti-mouse IgG H and L 2nd stage. After another 30 minutes incubation at 4° C. the cells were washed three times in FACS buffer and analyzed on the flow cytometer. Data are presented at the ratio of the Mean Fluorescent Intensity for the monoclonal divided by the background staining with the 2nd stage.

[6] = target: T2, DLL3; experiment: 4/37 internalization assay (staining at 4° C. versus 37° C., flow cytometry); type: cell-based; set-up: endogenous in cells; host or cells: NCI-H82; details: NCI-H82 cells, compared with reference monoclonal antibody SC16
Protocol: The four monoclonal antibodies (6-G23-F, 2-C8-A, 7-I1-B and 10-O18-A) were compared for their ability to internalize DLL3 by comparing the staining at 4° C. with that at 37° C. A reference monoclonal antibody SC16, which is known to internalize via DLL3 and to have ADC activity, and which was previously reported in the literature, was used as the positive control for internalization. NCI-H82 cells in exponential growth were harvested with trypsin/EDTA, washed once in RPMI containing 10% fetal calf serum (FCS) and resuspended in DMEM supplemented with 10% FCS at 2×10^7 cells/ml. 100 μl (2×10^6 cells) were added to U bottom 96 well plates. The test monoclonal antibodies (6-G23-F, 2-C8-A, 7-I1-B or 10-O18-A) or the reference monoclonal antibody were added to separate wells to give a final concentration of 10 μg/ml in duplicate plates. […] After 30 minutes incubation at 4° C. the cells were washed three times in cold wash buffer and either fixed in PBS 0.5% paraformaldehyde and analyzed by flow cytometry within 48 hours. The mean fluorescent intensity (MFI) ratios calculated by dividing the MFI obtained from the control plate (which incubated with the antibodies at 4° C.) by the corresponding MFI obtained from the experimental plate (which incubated with the antibodies at 37° C.) was taken as a relative measure of internalization. […]

[7] = system: NCI-H82 cells; experiment: Fab ZAP assay (saporin toxin delivery, cytotoxicity-based internalization); set-up: species or system human; details: Fab ZAP 4.4 nM, 3-4 days, Cell Titre Glow
[8] = target: T2, DLL3; experiment: Quenching Internalization Assay (F(ab) Dy650-QC1); type: cell-based; set-up: NCI-H82 cells in exponential growth were harvested with trypsin/EDTA; endogenous in cells; host or cells: NCI-H82; details: NCI-H82 cells, 4 hours at 37° C.; reference monoclonal set at 100% internalization

Sequence of DLL4 (Q9NR61 27-685): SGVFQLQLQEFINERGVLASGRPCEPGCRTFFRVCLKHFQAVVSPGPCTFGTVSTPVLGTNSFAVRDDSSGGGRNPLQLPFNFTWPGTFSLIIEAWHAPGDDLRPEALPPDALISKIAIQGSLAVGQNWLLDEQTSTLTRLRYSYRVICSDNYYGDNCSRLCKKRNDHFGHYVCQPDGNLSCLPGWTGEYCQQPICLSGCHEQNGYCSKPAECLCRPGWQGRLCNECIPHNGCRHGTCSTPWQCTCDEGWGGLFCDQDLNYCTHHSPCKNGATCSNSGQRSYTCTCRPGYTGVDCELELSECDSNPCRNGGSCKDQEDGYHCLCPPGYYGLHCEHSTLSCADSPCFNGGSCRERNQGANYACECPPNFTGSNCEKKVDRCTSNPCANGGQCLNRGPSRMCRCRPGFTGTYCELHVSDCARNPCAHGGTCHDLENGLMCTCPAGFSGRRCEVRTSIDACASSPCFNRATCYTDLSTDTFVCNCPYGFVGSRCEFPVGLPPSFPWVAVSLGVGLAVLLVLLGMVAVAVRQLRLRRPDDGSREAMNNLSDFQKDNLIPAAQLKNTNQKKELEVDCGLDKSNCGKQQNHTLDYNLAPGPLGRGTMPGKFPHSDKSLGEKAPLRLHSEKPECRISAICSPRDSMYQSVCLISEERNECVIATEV

Molecule | Epitope Bin [1] | binding to DLL3 [2] | binding to DLL1 [3] | binding to DLL4 [4] | 293 (negative control) (ratio of MFI for the monoclonal divided by background staining with the 2nd stage) [5] | ability to internalize DLL3 [6] | FAB ZAP % SC16 Max Killing [7] | Dy light Dy658 Fluorescence (% of the Control Reference Monoclonal Antibody) [8]
B1 | 3 | selectively bind DLL3 | not DLL1 or DLL4 | not DLL1 or DLL4 | 1.32 | able to internalize on binding DLL3 but not to the extent of the reference monoclonal antibody |  | 
B2 | 1 | selectively bind DLL3 | not DLL1 or DLL4 | not DLL1 or DLL4 | 0.60 | able to internalize on binding DLL3 but not to the extent of the reference monoclonal antibody | 88.0% | 62.2%
